Experimental findings from the BET-seq Pho4 binding data (Le et al. 2018) are described below.

Some of the results follow. These are noisy estimates, calculated here from bound and input reads.

The assay deals with T1, Pho4 (S. cerevisiae) (UniProt P07270).
T1 sequence: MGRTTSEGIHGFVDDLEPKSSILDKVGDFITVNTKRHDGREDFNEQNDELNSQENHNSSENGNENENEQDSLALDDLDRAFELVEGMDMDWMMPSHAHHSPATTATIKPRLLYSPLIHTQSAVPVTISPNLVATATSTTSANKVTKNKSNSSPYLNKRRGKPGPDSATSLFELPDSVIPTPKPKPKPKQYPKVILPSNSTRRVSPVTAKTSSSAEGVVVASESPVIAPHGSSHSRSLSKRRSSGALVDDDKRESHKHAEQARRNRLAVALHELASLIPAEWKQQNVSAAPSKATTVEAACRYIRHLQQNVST
The assay is described as follows: relative binding free energy (BET-seq); higher = weaker binding. The note with it: reference: library average.
On to CGTAGCACGTGTAGGG, for which the “relative binding free energy” value worked out at 0.01 kcal/mol.

Take TGGGTCACGTGGTTGA: the “relative binding free energy” value amounted to 0.07 kcal/mol.

As for GTTAGCACGTGGAGGG, the “relative binding free energy” value turned out to be 0.03 kcal/mol.

For TACTTCACGTGTGTTT, the “relative binding free energy” value worked out at 0.28 kcal/mol.

For GAGTACACGTGGAATG, the “relative binding free energy” value turned out to be 0.24 kcal/mol.

In the case of TACTGCACGTGGGTTT, the “relative binding free energy” value is -0.19 kcal/mol.

For the sequence TTATGCACGTGGGTTG, the “relative binding free energy” value is -0.17 kcal/mol.

On to TATTACACGTGCATTG, for which the “relative binding free energy” value was -0.01 kcal/mol.

As for TACGTCACGTGCATGT, the “relative binding free energy” value came out at 0.13 kcal/mol.

Take GAGTGCACGTGGCGTA: the “relative binding free energy” value is -0.19 kcal/mol.

For the sequence AAAGGCACGTGACGGG, the “relative binding free energy” value stood at 0 kcal/mol.

With GCTGTCACGTGGTGGG, the “relative binding free energy” value was 0.02 kcal/mol.

Consider AGCTGCACGTGAGTGT, for which the “relative binding free energy” value was found to be 0.16 kcal/mol.

Take GTTCGCACGTGATGTG: the “relative binding free energy” value was 0.11 kcal/mol.

Turning to GGTAACACGTGTTGAT, the “relative binding free energy” value stood at 0 kcal/mol.

Regarding TACGGCACGTGCGTGG, the “relative binding free energy” value was -0.19 kcal/mol.

Consider AGGGACACGTGTTCGG, for which the “relative binding free energy” value is -0.14 kcal/mol.

As to ACTTGCACGTGGTGTA, the “relative binding free energy” value was found to be 0.04 kcal/mol.

Turning to AGGTTCACGTGATGGA, the “relative binding free energy” value amounted to 0.33 kcal/mol.

Take GTATGCACGTGGTCGA: the “relative binding free energy” value worked out at 0.05 kcal/mol.

As for TAGAACACGTGGGGGA, the “relative binding free energy” value is -0.1 kcal/mol.

For the sequence TCCGACACGTGGGGTG, the “relative binding free energy” value was -0.08 kcal/mol.

Turning to ACGTGCACGTGCGTTT, the “relative binding free energy” value is -0.11 kcal/mol.

For TAAATCACGTGGCTGT, the “relative binding free energy” value amounted to 0.14 kcal/mol.

Consider AGTAACACGTGAGGTA, for which the “relative binding free energy” value turned out to be 0.05 kcal/mol.

For TGTAGCACGTGGCAGG, the “relative binding free energy” value is -0.1 kcal/mol.

AATGTCACGTGATTGA: the “relative binding free energy” value is 0.16 kcal/mol.

For AGTTGCACGTGGGGCT, the “relative binding free energy” value was -0.2 kcal/mol.

Consider GAATTCACGTGTCGGG, for which the “relative binding free energy” value turned out to be 0.29 kcal/mol.

For the sequence TTACTCACGTGTTAGT, the “relative binding free energy” value was 0.14 kcal/mol.

As for ATTGTCACGTGTTTTT, the “relative binding free energy” value was determined as 0.19 kcal/mol.

Consider TGCAGCACGTGTAAGG, for which the “relative binding free energy” value was -0.03 kcal/mol.

In the case of TAGGTCACGTGAACAT, the “relative binding free energy” value was found to be 0.36 kcal/mol.

As to GTGGGCACGTGATCGC, the “relative binding free energy” value came out at 0.02 kcal/mol.

TGTAGCACGTGTAAGC: the “relative binding free energy” value came out at 0.04 kcal/mol.

In the case of GTCATCACGTGTAAGG, the “relative binding free energy” value came out at 0.31 kcal/mol.

GGACTCACGTGTTAGT: the “relative binding free energy” value amounted to 0.3 kcal/mol.

For GGGAGCACGTGCGGAG, the “relative binding free energy” value was -0.09 kcal/mol.

For the sequence CAATACACGTGTGTTG, the “relative binding free energy” value is 0.09 kcal/mol.

For the sequence GTATGCACGTGTGTCT, the “relative binding free energy” value is -0.07 kcal/mol.

Regarding TATTCCACGTGAAGGT, the “relative binding free energy” value was 0.27 kcal/mol.

Consider TGTATCACGTGTCTGC, for which the “relative binding free energy” value turned out to be 0.19 kcal/mol.

Take CGGGTCACGTGGGTTA: the “relative binding free energy” value came out at 0.03 kcal/mol.

For the sequence AGATCCACGTGTTATT, the “relative binding free energy” value came out at 0.14 kcal/mol.

On to AGGTTCACGTGGCATG, for which the “relative binding free energy” value worked out at 0.13 kcal/mol.

Take TGTTGCACGTGGATGT: the “relative binding free energy” value was found to be 0.03 kcal/mol.

Turning to CCGTTCACGTGTTGGC, the “relative binding free energy” value was 0.42 kcal/mol.

Take GATTCCACGTGCGGGG: the “relative binding free energy” value was found to be 0.09 kcal/mol.

With GCGGCCACGTGGGAGT, the “relative binding free energy” value is -0.12 kcal/mol.

With TGTTTCACGTGAGTAT, the “relative binding free energy” value is 0.29 kcal/mol.

For the sequence AGTGACACGTGGTGCA, the “relative binding free energy” value was -0.13 kcal/mol.

Take CAGCTCACGTGAGGGG: the “relative binding free energy” value was determined as 0.28 kcal/mol.

Consider GTAAACACGTGTTCTG, for which the “relative binding free energy” value came out at 0.16 kcal/mol.

TCGTGCACGTGAGGAG: the “relative binding free energy” value is 0.34 kcal/mol.

For the sequence AGGTACACGTGTGCTT, the “relative binding free energy” value amounted to 0.04 kcal/mol.

With CTTATCACGTGGGTCT, the “relative binding free energy” value amounted to 0.12 kcal/mol.

As to GCGTTCACGTGGTAGA, the “relative binding free energy” value came out at 0.34 kcal/mol.

ATTATCACGTGGAGTC: the “relative binding free energy” value came out at 0.13 kcal/mol.

For TAGGGCACGTGGTCGT, the “relative binding free energy” value is -0.2 kcal/mol.

TGAGGCACGTGGGTAT: the “relative binding free energy” value was -0.19 kcal/mol.

For GTCGTCACGTGGTTTA, the “relative binding free energy” value turned out to be 0.06 kcal/mol.

Turning to TGGATCACGTGGACGG, the “relative binding free energy” value came out at 0.39 kcal/mol.

Consider GGCTGCACGTGGGTGG, for which the “relative binding free energy” value was -0.05 kcal/mol.

In the case of CGTAGCACGTGGAGGA, the “relative binding free energy” value is -0.13 kcal/mol.

In the case of CAGTCCACGTGTGGTT, the “relative binding free energy” value amounted to 0.07 kcal/mol.

TTGTTCACGTGAACTT: the “relative binding free energy” value is 0.55 kcal/mol.

In the case of AATCGCACGTGTGGTT, the “relative binding free energy” value amounted to 0.11 kcal/mol.

AGGTTCACGTGAGTGG: the “relative binding free energy” value was found to be 0.38 kcal/mol.

For ATGCTCACGTGGCGGG, the “relative binding free energy” value came to 0.1 kcal/mol.

Take CAGCGCACGTGGGGGG: the “relative binding free energy” value was -0.21 kcal/mol.

With CGTGGCACGTGTGGGC, the “relative binding free energy” value was -0.09 kcal/mol.

Consider GTGAGCACGTGTTGTC, for which the “relative binding free energy” value is -0.15 kcal/mol.

TGCTGCACGTGTGAGT: the “relative binding free energy” value was -0.01 kcal/mol.

On to GGTGACACGTGGAATG, for which the “relative binding free energy” value is 0.04 kcal/mol.

Take TTTAGCACGTGATTCT: the “relative binding free energy” value was determined as 0.06 kcal/mol.

With CAGTGCACGTGATAGG, the “relative binding free energy” value is -0.07 kcal/mol.

Turning to AGGGTCACGTGGCACT, the “relative binding free energy” value came out at 0.05 kcal/mol.

Consider AATGTCACGTGAGGCA, for which the “relative binding free energy” value worked out at 0.27 kcal/mol.

Regarding ATGGGCACGTGTATAG, the “relative binding free energy” value was -0.11 kcal/mol.

In the case of TCGGTCACGTGCATGG, the “relative binding free energy” value stood at 0.09 kcal/mol.

Turning to GTTAACACGTGGGCGG, the “relative binding free energy” value is -0.16 kcal/mol.

As to GTAGTCACGTGACTGG, the “relative binding free energy” value came out at 0.33 kcal/mol.

As for AAGGTCACGTGAGTAT, the “relative binding free energy” value was determined as 0.25 kcal/mol.

On to AGGGGCACGTGAGCGA, for which the “relative binding free energy” value is -0.05 kcal/mol.

Take TTTTCCACGTGTTAGG: the “relative binding free energy” value came to 0.17 kcal/mol.

Take TGTGACACGTGACGGA: the “relative binding free energy” value was determined as 0.09 kcal/mol.

Consider AAGCGCACGTGGGGGG, for which the “relative binding free energy” value was -0.19 kcal/mol.

On to CGTGGCACGTGCTGTT, for which the “relative binding free energy” value is -0.21 kcal/mol.

Regarding GAGCGCACGTGGGGCT, the “relative binding free energy” value is -0.23 kcal/mol.

On to GTGGTCACGTGTTGAT, for which the “relative binding free energy” value was 0.12 kcal/mol.

For the sequence TGGGGCACGTGTACTG, the “relative binding free energy” value was -0.07 kcal/mol.

As for TTAATCACGTGGGACT, the “relative binding free energy” value is -0.06 kcal/mol.

As to CGGATCACGTGTTATT, the “relative binding free energy” value worked out at 0.1 kcal/mol.

TGATGCACGTGTATGC: the “relative binding free energy” value amounted to 0.04 kcal/mol.

Consider GTCGGCACGTGAGGGC, for which the “relative binding free energy” value stood at 0.33 kcal/mol.

For AGGAGCACGTGGCCGG, the “relative binding free energy” value is -0.22 kcal/mol.

As to AACGTCACGTGTGGAT, the “relative binding free energy” value stood at 0.06 kcal/mol.

Turning to TCAGACACGTGGGGTG, the “relative binding free energy” value is -0.14 kcal/mol.

For CTTTGCACGTGTACGT, the “relative binding free energy” value amounted to 0.03 kcal/mol.

In the case of GTGCGCACGTGGGCGC, the “relative binding free energy” value was -0.03 kcal/mol.

Turning to TGAGTCACGTGTAACG, the “relative binding free energy” value was 0.29 kcal/mol.

For TATTACACGTGAATGA, the “relative binding free energy” value came out at 0.36 kcal/mol.

With TAGAACACGTGGATTG, the “relative binding free energy” value is 0.03 kcal/mol.

For the sequence GGGAACACGTGGTAAT, the “relative binding free energy” value turned out to be 0.18 kcal/mol.

For TACTTCACGTGTGATG, the “relative binding free energy” value worked out at 0.28 kcal/mol.

Consider CGGTCCACGTGTGTTG, for which the “relative binding free energy” value is -0.04 kcal/mol.

For TGGGGCACGTGCATTT, the “relative binding free energy” value is -0.14 kcal/mol.

As for GTGTTCACGTGAGCTG, the “relative binding free energy” value is 0.41 kcal/mol.

In the case of GTTATCACGTGAAGTT, the “relative binding free energy” value was 0.3 kcal/mol.

With TAGTTCACGTGAAGAG, the “relative binding free energy” value was found to be 0.2 kcal/mol.

Consider TGTGACACGTGTAAAG, for which the “relative binding free energy” value is 0.04 kcal/mol.

For TATAGCACGTGAGGGT, the “relative binding free energy” value was found to be 0.21 kcal/mol.

Turning to GGATGCACGTGTGTGC, the “relative binding free energy” value turned out to be 0.08 kcal/mol.

As to TAGGGCACGTGAGTCT, the “relative binding free energy” value was determined as 0.1 kcal/mol.

As for CTGGGCACGTGCGGTT, the “relative binding free energy” value is -0.04 kcal/mol.
